Assay results reported in publication PMC4342298 (Biochimica et biophysica acta, 2014).

B1: human apolipoprotein E3 (intact apoE3) (natural protein)
chain: not shown
B2: apoE3 C112S/S290C-pyrene (natural protein)
chain: not shown
modifications: N-(1-pyrene)maleimide on the cysteine at 290 (S290C-pyrene)
B3: apoE4 S290C-pyrene (natural protein)
chain: not shown
modifications: N-(1-pyrene)maleimide on the cysteine at 290 (S290C-pyrene)
B4: human apolipoprotein E4 (intact apoE4) (natural protein)
chain: not shown

Target: the molecule itself
Experiment: SEC

Binding result, binds:
B1
B2
B3
B4
